The full ranking holds about 33,000 sequences; the median of “E-score (-0.5 to 0.5)” is about -0.017, and the highest 2% start at about 0.3. Some of the results follow.
Target: T1, Sut1 (UniProt P53032)
T1 sequence: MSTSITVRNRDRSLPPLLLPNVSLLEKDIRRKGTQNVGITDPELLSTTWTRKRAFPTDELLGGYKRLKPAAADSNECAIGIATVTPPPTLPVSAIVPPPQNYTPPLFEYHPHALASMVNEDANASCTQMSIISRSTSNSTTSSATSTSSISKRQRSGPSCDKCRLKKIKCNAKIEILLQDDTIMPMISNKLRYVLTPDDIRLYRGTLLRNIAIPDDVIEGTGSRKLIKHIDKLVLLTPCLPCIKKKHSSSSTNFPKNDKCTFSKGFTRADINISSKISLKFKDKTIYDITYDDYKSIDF
Test: PBM E-score (8-mer binding enrichment) (E-score (-0.5 to 0.5)); higher = stronger / more preferred TF binding; most listed sequences are background and not binding sites
Conditions: protein concentration: 200 nM; construct: GST-full length
How it was run: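 For each ungapped eight-base word taken together with its reverse complement, the Universal PBM Analysis Suite assigned an E-score. Binding data came from GST-tagged yeast transcription factors, applied at about 100-200 nM, on universal all-10-mer Agilent arrays made double-stranded by primer extension. Fluorescent anti-GST marked bound protein, and scans were normalised with masliner.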

Sequence | PBM E-score
CGGCAACC | -0.151
CAGTCTAC | -0.131
ACTACTTC | 0.0508
TAACATAA | 0.234
GACCGCTA | -0.176
GAATGCTA | -0.0777
GGTATAAA | 0.221
CCTTCATC | -0.00832
ACACCACC | -0.215
GGCTTCTA | -0.021
ATTCTGTG | 0.201
GCCATTCC | -0.0862
GGACTCGA | 0.0681
TACCACGA | -0.0196
CGAAGCTC | -0.037
ATTGGTTC | 0.129
ATTGCGCA | -0.0406
ATACGGTC | -0.162
AAGCGAGG | -0.0277
CGGAATGA | 0.18
AGACAGAG | -0.0452
ATGCAGCC | -0.0379
CGACACAC | -0.0186
GATCGAGA | -0.00475

Sequence | PBM E-score
CAAAACCG | 0.141
ATGTGAAA | 0.103
ACCACCAA | -0.0399
ACAATTCT | 0.101
GCTGTAGA | -0.0872
CTCAGTGA | -0.26
AAGTGCTC | -0.305
ATGATCAG | 0.0134
CAGTAGTA | -0.0903
TCGCATCA | 0.0509
GAGTATCA | 0.186
CATAGACC | -0.129
ATGCTGTA | -0.0444
GAGTATCC | 0.0482
GGGTTCAC | -0.0207
GGGATCTA | -0.104
AACGCAGT | -0.045
ATAGCCGA | 0.165
TCGTCCCA | -0.269
CTAACAGC | -0.0894
AATATATA | 0.325
CAGCCCTA | -0.141
ATTTGTAA | 0.191
ATTTCGTG | 0.11

Sequence | PBM E-score
AGGACCCG | -0.173
GAACCTTA | 0.219
ATGGTTGG | 0.0746
AGTAATGG | 0.0811
AATCGGAA | 0.38
AGCTTCCT | 0.0814
AAAACCGT | 0.0363
GGGGAGGA | -0.223
CGCCAACA | 0.0475
CTTCTACA | 0.0611
GCAGGGAA | 0.0261
CTTGTAAA | 0.211
AGTTCGCG | -0.0451
ATAAAGCG | 0.0732
GATGAGAA | -0.0707
CCGTCCGC | -0.0619
CAGGGTGC | -0.248
AAGCAACA | 0.0472
AAATAGAC | 0.122
AGAGGTTG | -0.0996
GTACCATA | -0.106
CGTACGTC | -0.156
GTCCAAAC | -0.0427
AACAGAGG | -0.193

Sequence | PBM E-score
ACTCACAC | -0.0996
GCGAGGAA | 0.0765
GGCTCCAC | -0.197
GATGGTCC | -0.104
ACGCAATA | -0.0184
GACGTCCA | 0.00522
TATGTTGA | 0.109
CCAGGACA | -0.0809
ACACTTAC | 0.0992
AGTCAAGG | -0.139
GCTCGAAC | -0.0952
CGGTTAGA | 0.0398
CCCCGAGG | 0.11
ACATTGCA | -0.106
ACGTTCTG | -0.235
AACGCCCG | -0.0958
CATGAAGC | -0.0952
CTAGAACC | -0.0226
ATCCGCAT | -0.0548
CGATCTCA | -0.0333
AAACTTGT | 0.102
GGGCCGAA | -0.0697
GTATACCA | -0.0149
AAACACTA | 0.152

Sequence | PBM E-score
AAAAGGGA | -0.0887
CCTAACGA | 0.00922
AACATGCG | -0.0531
CTCCCCGC | 0.1
AGGAAGTA | 0.0793
AAAAAGAT | 0.227
AGGATGCG | -0.116
GTTCCGTA | 0.181
ACTAGAAG | 0.0116
CGGCTAAA | 0.193
GACGCGTC | -0.325
GGGGGTCA | -0.262
AGAATTCG | 0.191
TGTTTGAA | 0.158
ACGTGGTG | -0.133
ATGGCACC | -0.216
CGCGTTGC | -0.017
CTTGACCA | -0.111
AGTTTTAC | 0.113
CGGGTGCC | -0.0574
ACTGTAAC | 0.0291
CAGTTGAA | -0.00817
ACGCATCA | -0.0138
CGGTCAAG | -0.09

Sequence | PBM E-score
AAGTAGCG | -0.0369
CAAGTTCC | -0.0474
AGATAGAG | 0.098
GAACCAGA | -0.185
GGCCCCGA | -0.074
GGCGGAGA | 0.23
GCATCGGC | -0.241
GTAGGTTA | 0.0304
GTCTAAGA | 0.0877
GCGTACCC | -0.149
ACCTTTAT | -0.051
AGGAGACA | -0.0333
CTGGGTTC | -0.0566
GTAAGAGA | -0.0287
CAATTCGC | 0.0979
CACTGCGA | -0.139
ACGTGCTA | -0.0868
CTTCTCAA | 0.0485
CTCTATTC | -0.0453
GTTTTACA | -0.0491
GTAATGAC | -0.0353
ATCCACGC | -0.15
GGTCCCTA | -0.185
CGATATAC | 0.0393

Sequence | PBM E-score
CTGTCGTA | 0.0251
GCCCTCAA | -0.171
ACCGGAGA | 0.43
CGTAGAGA | -0.0869
CTCGCCGC | -0.036
AACCCGAG | 0.0811
ATCCAGGC | -0.187
CTCTAGCC | -0.0604
GGAAGCCC | -0.0417
CCGAAGAC | 0.0905
CGCGTTGA | -0.0478
AACTCTCA | -0.14
CTCCTGGC | -0.147
AGTAAGAT | 0.0546
GACTGGAA | 0.00283
CGGAGAAG | 0.36
CTTACGGA | 0.187
CCCACAAA | 0.105
AAATAGTG | 0.22
CATCAAAC | 0.117
GGGTTGGA | -0.00878
CAGTGGGA | -0.235
CCAGTCGA | -0.113
AATCGGAT | 0.183

Sequence | PBM E-score
AGTCTTCG | 0.0103
GGGAACGA | -0.123
ACAGACCT | -0.056
GATCTACA | 0.0127
CAAAGGTC | -0.194
AAAATTCA | 0.246
ACGGTTGA | -0.0185
AGTACCCG | -0.0492
TCTACCAA | 0.0475
ACCCTGGA | -0.343
AGGGCAGA | -0.348
ATCGAGCG | -0.103
CCCTGTCA | -0.272
AATGCAAT | -0.0202
CGAACCAG | 0.00064
GGTTGTTA | 0.0738
TAAGTATA | 0.294
GCGAGTAA | 0.14
ATCACCGA | 0.0738
TCCCCAGA | -0.257
ATAGACCA | -0.0792
CATTGCGC | -0.0585
AATTCCCT | -0.0468
GGCACCAC | -0.204

Sequence | PBM E-score
AACTGTGC | -0.138
CAAGCTCC | -0.0454
CACTAGTC | -0.101
TCAGAACA | 0.0225
GCTGTCAA | -0.127
AAGGAAGG | -0.112
GTGCACTA | -0.0693
CGGTAAGA | -0.0105
AAGTGAGT | -0.105
ACCAGTGC | -0.226
CCCACGGG | -0.285
AGTAATAC | 0.133
GGCGCAAC | -0.0341
AGTGAATA | 0.177
ACCTCTAG | -0.0682
AAAGTAAC | 0.198
ACGCCCAA | -0.0293
CGGCTGGA | -0.177
ATATTGCC | -0.0405
AACACACC | 0.0401
AGTACATC | 0.0401
ACAAAGTA | 0.0818
CGACAGTA | -0.00381
AGGCGCCC | -0.224

Sequence | PBM E-score
CCAGTTGC | -0.142
TGCCCCCA | -0.308
ACAGCGAA | -0.00091
TGAGAGCA | 0.0225
ATCATTAA | 0.305
AAGTGTTG | 0.162
AACCAATA | 0.157
CCCCTCCG | -0.14
TACAGTCA | 0.0623
AACGAACC | 0.12
CGCTCTGA | -0.167
ACGAAGAC | -0.04
CCCCGGTC | 0.0652
CGTGGCTA | -0.0311
CATCAGCA | -0.0871
ACCGTTCG | -0.101
CATTGGGA | -0.184
AATCAATA | 0.193
GATCCATC | 0.113
CTTCGTCA | 0.00553
CGATACAC | 0.0385
TACGCCAA | -0.254
AAAGGGCG | -0.1
CCCGCCAC | -0.00219

Sequence | PBM E-score
CGCCGAGA | 0.0729
ATTTGAAC | 0.158
CCCGATTC | 0.0897
AACAAAGT | 0.262
ATAAATCC | 0.217
ACACTGAC | -0.0801
ACACGGGC | -0.114
CGTCAGCA | -0.145
AGTACTCC | 0.325
GATCTAAC | 0.119
AACAGTCT | -0.204
AATTTTCT | 0.122
AATATATG | 0.242
ACGGGTGC | -0.0663
GCTGCCTA | -0.09
AAATCTAC | 0.24
CGCCTTTA | 0.00935
CAATTATA | 0.164
GCTTGTGA | -0.189
CCAGTCTA | -0.171
CGGTAGTA | 0.0454
CGGCACGA | -0.0995
ACACCTAG | -0.0572
ACCTGTCA | 0.00542

Sequence | PBM E-score
CACCTATG | -0.171
CATGTTCC | -0.0382
CTGCTCTA | -0.104
ATAGATGG | -0.0418
GCGTGCTA | -0.251
AAAGCGGT | -0.0242
ATGTTCGC | -0.0708
CAAGAGGC | -0.191
ACTTAACG | 0.0577
CACGCTGC | -0.277
CCTTCGAC | -0.232
GATCTCTA | -0.094
AGGTCCAC | -0.265
ACAAGCGA | -0.00091
GAGCGGCC | -0.156
CCTGATAC | 0.0669
AAATCTGT | 0.097
CAGTGTTC | 0.0572
AGCCCAAG | -0.181
CCACTGCG | -0.0681
ATCTCGTC | -0.0264
AAAATAGT | 0.133

From the supplement of paper PMC3334620
